{"source": "PubChem BioAssay AID504832", "about": "(National Center for Advancing Translational Sciences (NCATS), 2011)", "note": "The campaign covered roughly 310,000 compounds. About 18,000 (5.8%) were called active. Inconclusive means that the source gave no clear call. Such entries were picked first, then a sample of the others. Calls follow the shape of the dose curve; as a rule, active = well fitted inhibition curve with a large enough effect; inconclusive = small, poorly fitted or top-dose-only effect, or another doubt; inactive = no such curve, though single readings can be large or run the other way. Potencies of inconclusive entries are left out as doubtful fits.", "data": [{"test": "Primary qHTS for delayed death inhibitors of the malarial parasite plastid, 48 hour incubation; also: potency is read from the fitted curve at half-maximal effect; tags tell the direction and shape of the fitted curve; as to activity change, negative = inhibition: % is scaled to controls: 0 for no effect and ±100 for the full control effect", "conditions": "P. falciparum luciferase growth in erythrocytes; series mostly up to 28.7 µM; activity change, negative = inhibition: at the top concentration", "method_in_brief": "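Compounds are pin-transferred into medium, infected erythrocytes (2% hematocrit, 0.1% parasitemia final) are added, and plates sit one parasite generation at 37 C in 5% CO2. Detection reagent is then added and luminescence measured.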", "values": [{"molecule": "COCCn1c(N)c(C(=O)NCC2CCCO2)c2nc3ccccc3nc21", "note": "(centres undefined)", "Potency": "inconclusive [inhibitor, single point]"}, {"molecule": "CCOc1cc(CNCc2ccncc2)cc(Br)c1OCc1ccc(F)cc1", "Potency": "inconclusive [inhibitor, single point]"}, {"molecule": "CCC(=O)N1c2ccccc2C(N(C(C)=O)c2ccccc2)CC1C", "note": "(centres undefined)", "activity change, negative = inhibition": "inactive: -28.2%"}, {"molecule": "COc1ccc(C(=O)COC(=O)c2cc(S(=O)(=O)NCc3ccccc3)ccc2O)cc1", "activity change, negative = inhibition": "inactive: 10%"}, {"molecule": "COc1cc(OC)c(C(=O)Oc2ccc3c(c2)OCO3)cc1OC", "activity change, negative = inhibition": "inactive: -18.6%"}, {"molecule": "CCOC(=O)C1=C(c2ccccc2)NC(=O)NC1c1ccc(OCC#N)c(OC)c1", "note": "(centres undefined)", "Potency": "inconclusive [inhibitor, partial curve, poor fit]"}, {"molecule": "Nc1cc(=O)[nH]c(SCC(=O)NNC(=O)Cc2ccccc2)n1", "activity change, negative = inhibition": "inactive: 50.7%"}, {"molecule": "O=C(NCc1ccc(Cl)cc1)C1CCN(C(=O)c2ccc(Cl)cc2)CC1", "Potency": "inconclusive [inhibitor, partial curve]"}, {"molecule": "CCOc1ccc(NC(=O)CN(C)C(=O)CSc2ccccc2)cc1OCC", "Potency": "inconclusive [inhibitor, single point]"}, {"molecule": "Cc1ccc(NC(=O)CSC2=C(C#N)C(c3ccco3)C3=C(CC(C)(C)CC3=O)N2)cc1", "note": "(centres undefined)", "Potency": "inconclusive [inhibitor, single point]"}, {"molecule": "CCOc1ccc(OCCn2c(=S)[nH]c3ccccc32)cc1", "Potency": "inconclusive [inhibitor, single point]"}, {"molecule": "Cc1cc(C(=O)N/N=C/c2cccc([N+](=O)[O-])c2)c2ccccc2n1", "activity change, negative = inhibition": "inactive: 12.5%"}, {"molecule": "O=C1c2ccccc2C(=O)C1(CO)c1ccc(OC(F)F)cc1", "Potency": "active: 11.7 µM"}, {"molecule": "Cc1cccc(OCC(=O)Nc2ccc(N3CCCC3)cc2)c1C", "Potency": "active: 10.4 µM"}, {"molecule": "Cc1ccccc1SCC(=O)Nc1cc(C(F)(F)F)ccc1N1CCOCC1", "Potency": "active: 2.08 µM"}, {"molecule": "CCOc1ccc(-c2nnn(CC(=O)N3CCN(c4ccc(OC)cc4)CC3)n2)cc1OCC", "Potency": "inconclusive [inhibitor, single point]"}, {"molecule": "Cc1c(Cl)cccc1NC(=O)[C@@H](NC(=O)c1ccccc1Cl)C(C)C", "activity change, negative = inhibition": "inactive: 2.69%"}, {"molecule": "COc1ccc2cc(CN(CC3CCCO3)C(=O)Nc3ccccc3OC)c(=O)[nH]c2c1", "note": "(centres undefined)", "Potency": "inconclusive [inhibitor, single point]"}, {"molecule": "Cc1cccc(NC(=O)CN2CCN(C(=O)COc3cccc(Br)c3)CC2)c1C", "Potency": "inconclusive [inhibitor, partial curve, poor fit]"}, {"molecule": "CCOC(=O)c1cc(C)n(Cc2ccc(OCC)c(OC)c2)c1C", "Potency": "active: 1.65 µM"}, {"molecule": "COc1cc(SC)ccc1C(=O)OCC(=O)NCC(C)C", "activity change, negative = inhibition": "inactive: 19.7%"}, {"molecule": "O=C(C1=C(O)C(=O)N(CC2CCCO2)C1c1cccc(O)c1)c1ccco1", "note": "(centres undefined)", "activity change, negative = inhibition": "inactive: 23.7%"}, {"molecule": "CCCNC(=O)COc1ccc(S(=O)(=O)Nc2ccc(C)cc2)cc1", "Potency": "inconclusive [inhibitor, single point]"}, {"molecule": "CC(=O)Nc1cccc(C(=O)/C=C/c2ccco2)c1", "Potency": "inconclusive [inhibitor, partial curve, poor fit]"}, {"molecule": "CC1(C)CC(=O)C2=C(C1)N(CCN1CCOCC1)C1=C(C(=O)CC(C)(C)C1)C2c1ccc(Cl)cc1", "Potency": "active: 5.22 µM"}, {"molecule": "CCCC(C(=O)NCc1ccccc1)N(C(=O)Cn1nnc(-c2cccs2)n1)c1ccc2c(c1)OCCO2", "note": "(centres undefined)", "Potency": "inconclusive [inhibitor, full curve]"}, {"molecule": "CCOc1ccc(CCNC(=O)Nc2ccccc2)cc1OCC", "Potency": "inconclusive [inhibitor, full curve, poor fit]"}, {"molecule": "CCOC(=O)C1(CC2CCCCO2)CCN(C(=O)Nc2ccc3c(c2)OCO3)CC1", "note": "(centres undefined)", "Potency": "inconclusive [inhibitor, partial curve, poor fit]"}, {"molecule": "COc1ccc(-c2c(C)oc3c(CN4CCCCC4C)c(O)ccc3c2=O)cc1", "note": "(centres undefined)", "Potency": "inconclusive [inhibitor, partial curve]"}, {"molecule": "CC1=C(C(=O)N(C)Cc2ccccc2)C2(CCC(C)CC2)OC1=O", "note": "(centres undefined)", "Potency": "inconclusive [inhibitor, single point]"}, {"molecule": "O=C(Nc1cccc(-n2cccn2)c1)C1CCCN(Cc2cccc(F)c2F)C1", "note": "(centres undefined)", "activity change, negative = inhibition": "inactive: -8.28%"}, {"molecule": "O=C(NCc1ccco1)C(c1ccc(F)cc1)N(Cc1cccnc1)C(=O)Cn1nnc2ccccc21", "note": "(centres undefined)", "Potency": "inconclusive [inhibitor, single point]"}, {"molecule": "N#Cc1c2c(c(-n3cnc4ccccc43)n3c1nc1ccccc13)CCC2", "Potency": "inconclusive [inhibitor, partial curve, poor fit]"}, {"molecule": "O=C(c1csc(Nc2cccc3ccccc23)n1)N1CCCC1", "Potency": "inconclusive [inhibitor, partial curve]"}, {"molecule": "CCN(CC)S(=O)(=O)c1ccc(N2CC(C(=O)NCCC3=CCCCC3)CC2=O)cc1", "note": "(centres undefined)", "Potency": "inconclusive [inhibitor, single point]"}, {"molecule": "Cc1c(Cl)cccc1NC(=O)Cn1cc(C(F)(F)F)cc(Cl)c1=O", "Potency": "inconclusive [inhibitor, single point]"}, {"molecule": "O=C(CSc1ccccn1)Nc1nonc1[N+](=O)[O-]", "Potency": "inconclusive [inhibitor, partial curve]"}, {"molecule": "Cc1cc(C)nc(SCc2cccc(C(=O)O)c2)n1", "activity change, negative = inhibition": "inactive: 4.76%"}, {"molecule": "O=C(COC(=O)C12CC3CC(CC(Br)(C3)C1)C2)N1CCOCC1", "activity change, negative = inhibition": "inactive: 4.33%"}, {"molecule": "COc1cc(OC)c(C(=O)OCCCOC(=O)c2cc(OC)c(OC)cc2OC)cc1OC", "Potency": "inconclusive [inhibitor, single point]"}, {"molecule": "Cc1cc(C=C2C(=O)NC(=O)NC2=O)c(C)n1-c1ccc2c(c1)OCO2", "activity change, negative = inhibition": "inactive: 8.86%"}, {"molecule": "COc1ccc(-n2nc(C(=O)NCC(=O)N(C)Cc3ccccc3)c3ccccc3c2=O)c(OC)c1", "Potency": "inconclusive [inhibitor, partial curve, poor fit]"}, {"molecule": "COc1ccc(-c2n(-c3ccccn3)c3ccccc3[n+]2-c2ccccn2)cc1", "Potency": "active: 10.4 µM"}, {"molecule": "O=C(Cc1cccs1)N1CCCC(c2nc3c(nnn3Cc3cccc(Cl)c3)c(=O)[nH]2)C1", "note": "(centres undefined)", "Potency": "active: 8.28 µM"}]}]}
